The text below walks through data of PubChem BioAssay AID1508623 (National Center for Advancing Translational Sciences (NCATS), 2021).

The whole screen tested about 48,000 compounds, of which about 450 (0.94%) were called active. Roughly 19% stayed inconclusive and do not appear here. Calls follow the shape of the dose curve; as a rule, active = well fitted inhibition curve with a large enough effect; inconclusive = small, poorly fitted or top-dose-only effect; inactive = no such curve, though single readings can be large or run the other way. This is one part of the list.

This experiment is described as follows: Primary qHTS for Identification of Small Molecule Inhibitors of Huntingtin Promoter Activity. Also: nearly all actives have a fitted effect of over 50% in size. To be noted: HEK293 HTT promoter firefly luciferase reporter (activity 0% = vehicle and -100% = no light), 24 h; series mostly up to 57.5 µM; activity change, negative = inhibition: at the top concentration. Summed up: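 HEK293 cells carrying firefly luciferase reporters were seeded at 2,500 per well in Opti-MEM and cultured for 24 h. They were then treated with compounds at up to 57.5 uM final for 24 h at 37 degrees C before Dual-Glo luminescence readout.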
In general terms: qHTS replaces the single test concentration by a dilution series.
`CCc1ccccc1Nc1ncnc2c1cnn2-c1ccc(C)cc1C`: the “activity change, negative = inhibition” value is inactive: -2.36%. In the case of `COc1ccc(C(=O)Nc2nnc(S(=O)(=O)N3CCN(c4ccc(F)cc4)CC3)s2)cc1`, the “activity change, negative = inhibition” value is inactive: -0.601%. Turning to `CC(C)COc1ccc(C(=O)Nc2nnc(S(=O)(=O)N(C)Cc3ccco3)s2)cc1`, the “activity change, negative = inhibition” value is inactive: 7.49%. As to `COc1cccc(CNC(=O)c2cc3c(=O)n(Cc4cccnc4)ccc3nc2C)c1`, the “activity change, negative = inhibition” value is inactive: -29.6%. Then `CCc1cccc(NC(c2ccccc2)c2nnc(-c3ccccc3F)o2)c1` (configuration not stated), with inactive: 7.18%; and `CCOC(=O)c1c(C)[nH]c(C)c1S(=O)(=O)N1CCCC(C(=O)NCc2ccccc2Cl)C1` (configuration not stated), with inactive: -27.8%; and `CC(=O)Nc1ccc(OCC(O)CNC(C)C)cc1` (configuration not stated), with inactive: 8.29%. Then `COc1ccccc1CNC(=O)CN(c1ccccc1OC)S(C)(=O)=O`, with inactive: -8.53%; and `CCC(C)NC(=O)Cn1c(=O)n(-c2ccc(OC)c(OC)c2)c(=O)c2ccccc21` (configuration not stated), with inactive: -16.4%; and `Cc1ccc2c(c1)Cc1c(nc(-c3ccc(F)cc3)nc1SCC(=O)N1CCCCC1)O2`, with inactive: -12.5%. As to `Cc1ccc(Nc2c(-c3cccnc3)nc3ccc(Cl)cn23)cc1`, the “activity change, negative = inhibition” value was inactive: -14.5%.

Take `CCOC(=O)C1CCN(C(=O)c2c(C)nn(-c3ccc(F)cc3)c2-n2cccc2)CC1`: the “activity change, negative = inhibition” value was inactive: -28.3%. For the compound `COc1ccc2cc(CCNS(=O)(=O)c3ccc(C)cc3)c(=O)[nH]c2c1`, the “activity change, negative = inhibition” value was inactive: -16.1%. As to `CCCc1nnc(NC(=O)Cc2coc3c(C)c(C)ccc23)s1`, the “activity change, negative = inhibition” value was inactive: -8.07%.

With `O=C(COCc1cc(-c2cccs2)on1)NCc1ccc(F)cc1`, the “activity change, negative = inhibition” value was inactive: -12.7%. Turning to `O=C(Nc1ccc(Cl)cc1)c1ccc(-n2cnnc2)cc1`, the activity change, negative = inhibition is inactive: -3.27% [at 11.5 µM]. On to `Cc1ccc(-n2ncc3c(N4CCN(Cc5ccccc5)CC4)ncnc32)cc1Cl`, for which the “activity change, negative = inhibition” value was inactive: -14.4%.

For `CCc1cc(=O)[nH]c(SCc2nc(-c3cccc(Cl)c3)no2)n1`, the “activity change, negative = inhibition” value was inactive: -14.3%. Turning to `CC(C)c1ccc(NC(=O)C2CCCN2S(=O)(=O)c2ccc3nc(-c4ccccc4)[nH]c3c2)cc1` (configuration not stated), the “activity change, negative = inhibition” value was inactive: -28.1%.

Take `COc1ccc(C(=O)N(Cc2sccc2C)C2CCS(=O)(=O)C2)cc1` (configuration not stated): the “activity change, negative = inhibition” value was inactive: -10.2%. For the compound `COc1cc(NC(=O)Cn2ccc3ccccc3c2=O)cc(OC)c1OC`, the “activity change, negative = inhibition” value is inactive: -25%. `CCc1ccc(C2C(C(=O)Nc3ccccc3OC)=C(C)Nc3nc(SCc4ccccc4)nn32)cc1` (configuration not stated): the “activity change, negative = inhibition” value was inactive: -2.7%. `CCOc1ccc(CNC(=O)CN2N=C(c3ccccc3)CCC2=O)cc1OC`: the “activity change, negative = inhibition” value was inactive: -7.71%. As to `Cc1ccc(-n2ncc(C(=O)NCCN3CCN(C)CC3)c2C2CCN(C(=O)OC(C)(C)C)CC2)cc1`, the “activity change, negative = inhibition” value is inactive: -12%. For `Cc1nc(C)c(-c2ccc(SCC(=O)Nc3cccc(C)c3C)nn2)s1`, the “activity change, negative = inhibition” value is inactive: -11.3%. Then `Cn1c(C(=O)NCCc2ccccc2)cc2sc(Cl)cc21`, with inactive: 30.7%; and `Cc1ccccc1C(=O)NNc1ncnc2c1cnn2-c1cccc(Cl)c1`, with inactive: -28.8%; and `Cc1ccc(Cn2c(CNC(=O)c3ccc(Cl)c([N+](=O)[O-])c3)nc3cccnc32)cc1`, with inactive: -19.4%. Then `CCCc1ccc(NC(=O)C2CCCN(c3cnccn3)C2)cc1` (configuration not stated), with inactive: 0.638%; and `CCc1ccc(NC(=O)C2CCN(S(=O)(=O)c3cccc(-c4noc(C)n4)c3)CC2)cc1`, with inactive: -29.3%. The result for `COc1cccc(-c2oc3ccc(C)cc3c(=O)c2O)c1` reads inactive: 51.8%. Take `Cc1noc(C)c1S(=O)(=O)N(CC(=O)NCCc1ccc(Cl)cc1)c1ccc(C(C)C)cc1`: the “activity change, negative = inhibition” value was inactive: -1.54%.

For the compound `CCOc1cccc2sc(NC(=O)CS(=O)(=O)c3ccc(C)cc3)nc12`, the “activity change, negative = inhibition” value was inactive: -14%. In the case of `CCN(Cc1ccccc1)S(=O)(=O)c1ccc(F)c(C(=O)Nc2cc(C(F)(F)F)ccc2Cl)c1`, the “activity change, negative = inhibition” value was inactive: -23.7%.

As to `COc1ccc(N2C(=O)CSC23C(=O)N(CC(N)=O)c2ccccc23)cc1` (configuration not stated), the “activity change, negative = inhibition” value is inactive: 30.3%.

With `COc1ccc(-n2c(=O)c3sc4ccccc4c3n(CC(=O)NC3CCCCC3)c2=O)cc1`, the “activity change, negative = inhibition” value is inactive: -14.2%.

For `COC(=O)c1ccc([C@H]2Nc3ccc(S(=O)(=O)Nc4cccc(C)c4)cc3[C@H]3C=CC[C@H]32)cc1`, the “activity change, negative = inhibition” value was inactive: -26%. Consider `COCCNC(=O)CCCn1c(SCc2ccccc2Cl)nc2c(sc3ccccc32)c1=O`, for which the “activity change, negative = inhibition” value is inactive: -9.79%. Then `COc1ccccc1C1CC(=O)N(c2cccc(C(F)(F)F)c2)C2=C1C(=O)OC2` (configuration not stated), with inactive: -18.1%; and `CCCCOc1ccc(C(=O)N(Cc2ccco2)Cc2ccco2)cc1`, with inactive: -9.5%. Turning to `Cc1ccc(/C=N/n2c(-c3ccccc3)csc2=S)cc1`, the “activity change, negative = inhibition” value is inactive: -1.64%.

For `Cc1cccc(N(CC(N)=O)C2SC(=O)N(Cc3cccc(C(=O)O)c3)C2=O)c1` (configuration not stated), the “activity change, negative = inhibition” value is inactive: -5.05%. Then `CCC(=O)Nc1nnc2n1CCS2`, with inactive: -9.14%; and `Cc1cc(Br)cc2c(C(=O)OCC(=O)c3ccccc3)cc(-c3ccccc3)nc12`, with inactive: -8.23%.

Regarding `Cc1c(-c2nnc(SCC(=O)Nc3ccc(Cl)cc3)o2)nnn1-c1ccc(F)cc1`, the “activity change, negative = inhibition” value was inactive: 11.2%. On to `CCN1CCSc2ccc(C(=O)NCc3ccccc3Br)cc21`, for which the “activity change, negative = inhibition” value is inactive: -20.2%.

For `O=c1[nH]c(SCc2cccc(Cl)c2)nc2c1CCC2`, the “activity change, negative = inhibition” value is inactive: 0.451%.
